# From PubChem BioAssay AID1347120 (National Center for Advancing Translational Sciences (NCATS), 2019)
# Screen size: about 390,000 compounds; about 930 (0.24%) were called active. The shares of active, inactive and inconclusive entries below differ from those in the screen. Calls follow the shape of the dose curve; as a rule, active = well fitted activation curve with a large enough effect; inconclusive = small, poorly fitted or top-dose-only effect; inactive = no such curve, though single readings can be large or run the other way. Potencies beside an inconclusive call are fits to weak or partial responses and may not hold up.
# Assay: qHTS for Suppressors of FUS Proteinopathy: Primary screen using FUS-linked yeast assay; also: nearly all actives have a fitted effect of over 55% in size;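 as to growth rescue (activation): plate controls were DMSO vehicle for no effect and reference control for full effect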
# Details: S. cerevisiae FUS-expressing, OD600, 24 h; Potency: growth rescue; growth rescue (activation): at 76.6 µM (top of the series)
# How it was run: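 Read-out: OD at 600 nm after 24hr at 30C, reporting rescue of FUS-induced yeast toxicity. Cells at OD 0.005 in galactose (2%) minimal medium; compounds tested in a dilution series; CP55940 titration from 92uM final as control.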
# Potency is read from the fitted curve at half-maximal effect; tags tell the direction and shape of the fitted curve.
Compound,growth rescue (activation),Potency
CC(C)(C)NC(=S)N1CCC(C(=O)c2ccc(F)cc2)CC1,inactive: -26%,
COc1ccccc1NCC(O)COc1ccc(C(C)(C)C)cc1 (stereo unspecified),,"inconclusive: 31.6 µM [activator, single point]"
CC(C)CC1C(=O)N(Cc2cn(CCC3OCCCO3)nn2)CCS(=O)(=O)N1Cc1ccc(-c2cccc(CO)c2)cc1 (stereo unspecified),,"inconclusive: 17.8 µM [activator, single point]"
Fc1ccc(NC(=S)NNc2ncc(C(F)(F)F)cc2Cl)c(F)c1,,"inconclusive: 5.01 µM [activator, full curve, poor fit]"
Cc1cc(C)cc(OCc2nnc(SCC(=O)N3CCN(c4ccccc4)CC3)o2)c1,,"inconclusive: 4.47 µM [activator, single point]"
Oc1c(C(c2ccc(Cl)cc2)N2CCC3(CC2)OCCO3)sc2nc(-c3ccco3)nn12 (stereo unspecified),,"inconclusive: 31.6 µM [activator, single point]"
Cc1ccc(C(=O)Oc2ccc(/C=C3\C(=N)N4N=C(N5CCOCC5)SC4=NC3=O)cc2)cc1,,"inconclusive: 10 µM [activator, partial curve]"
CC(C)C[C@H]1CNC(=S)N1C[C@H]1CCCN1C[C@H](CC(C)C)N1C[C@H](Cc2ccc(O)cc2)N(CC2CCCCC2)C1=S,,"inconclusive: 11.2 µM [activator, partial curve, poor fit]"
N=c1c(C(=O)NCc2ccco2)cc2c(=O)n3ccccc3nc2n1Cc1ccc(Cl)cc1,,"inconclusive: 5.01 µM [activator, partial curve]"
CCOc1ccc(-n2c(C)c(C(=O)OC)c3cc(O)ccc32)cc1,inactive: 9.96%,
COc1ccc(-c2cc(C(=O)N3CCCC(C(F)(F)F)C3)c3ccccc3n2)cc1 (stereo unspecified),,"inconclusive: 22.4 µM [activator, single point]"
O=C(CSc1nnc(-c2cccnc2)n1Cc1ccco1)c1ccc2ccccc2c1,,"inconclusive: 39.8 µM [activator, partial curve, poor fit]"
COc1ccc(OC)c(C2C3=C(N=C4SCC(=O)N42)c2ccccc2CC3)c1 (stereo unspecified),,"inconclusive: 25.1 µM [activator, partial curve, poor fit]"
C[C@@H](c1ccccc1)N1C[C@H](COCc2ccccc2)Oc2cc(N3CCC[C@H]3C(N)=O)ccc2S1(=O)=O,,"inconclusive: 14.1 µM [activator, partial curve, poor fit]"
COc1ccc(Cn2c(CCC(=O)Nc3ccccc3)nc3cccnc32)cc1,,"inconclusive: 11.2 µM [activator, partial curve]"
Cc1ccc(CN(C)C(=O)COc2ccc(S(=O)(=O)N3CCCC3)cc2[N+](=O)[O-])c(C)c1,,"inconclusive: 10 µM [activator, single point]"
CCOc1ccc(OCCCCNC(C)(C)C)cc1,inactive: -19.5%,
Cc1ccc(CN2CCSc3ccc(C(=O)NCc4cccnc4)cc32)cc1,,"inconclusive: 25.1 µM [activator, partial curve]"
COCCNc1nc(-c2ccccc2F)c2sc(-c3ccccc3)cc2n1,,"inconclusive: 28.2 µM [activator, single point]"
CC(=O)Nc1ccc2c(c1)C(=O)c1ccccc1C2=O,,"inconclusive: 20 µM [activator, partial curve, poor fit]"
O=c1c2ccccc2ncn1CCCSc1ccc(Cl)cc1,inactive: 36.3%,

Compound,growth rescue (activation),Potency
CC1CCC2(CC1)CCC2NCc1ccc(Cl)c(Cl)c1 (stereo unspecified),inactive: -5.89%,
O=C(CCN1C(=O)/C(=C/c2cccs2)SC1=S)Nc1cccc(O)c1,inactive: 20.8%,
CCOC(=O)[C@H]1[C@H]2COc3ccc(Cl)cc3[C@@H]2N2C(=O)c3cc(F)c(F)cc3NC(=O)[C@@]12C,,"inconclusive: 35.5 µM [activator, single point]"
Cc1ccc(C)c(C(=O)COC(=O)c2n[nH]c3ccccc23)c1,inactive: 23.1%,
Cc1ccc(CSCC(=O)N2CCN(c3ccccc3F)CC2)cc1,,"inconclusive: 35.5 µM [activator, single point]"
COc1ccc(-c2cn3c(C)c(C(=O)Nc4cccc(C)n4)sc3n2)cc1,,"inconclusive: 50.1 µM [activator, single point]"
CCCNC(=O)c1cc2c(c(-c3cccc(-c4ccc(F)cc4)c3)n1)[C@H](CCO)N(S(=O)C(C)(C)C)C2 (stereo partly specified),,"inconclusive: 39.8 µM [activator, single point]"
COc1ccc(NC(=O)CN(c2ccc(OC)c(Cl)c2)S(=O)(=O)c2ccccc2)c(OC)c1,,"inconclusive: 28.2 µM [activator, single point]"
C=CCN1C(=O)[C@@H](CC(=O)NCc2ccc(OC)c(OC)c2)[C@]2(C(=O)OC)CCCCC=C12,inactive: 1.83%,
O=C(Cn1c(=S)[nH]c2ccccc21)c1ccccc1,,"inconclusive: 5.62 µM [activator, single point]"
CCCCCOc1c(Cl)cc(C(=O)N(Cc2ccc(C)o2)C2CCS(=O)(=O)C2)cc1Cl (stereo unspecified),,active: 35.5 µM
COc1ccc(C)c2sc(N(Cc3cccnc3)C(=O)C3CCCCC3)nc12,inactive: 23.8%,
COc1ccc(C)cc1NC(=O)c1c(C)oc2ncn(CC(C)C)c(=O)c12,,"inconclusive: 28.2 µM [activator, single point]"
O=C(Nc1nc2n(n1)C(c1ccccc1)CC(c1ccc(Cl)cc1)N2)c1ccco1 (stereo unspecified),,"inconclusive: 28.2 µM [activator, single point]"
CCCn1c(=O)n(-c2ccccc2Cl)c(=O)c2sc3ccccc3c21,inactive: -15.7%,
Cc1cc(Nc2nc3ccccc3[nH]c2=O)n(-c2ccccc2)n1,,"inconclusive: 25.1 µM [activator, partial curve]"
CC1=Nc2cc(C(=O)NCc3ccccc3Cl)ccc2Sc2c(C)ccc(C)c21,inactive: 31.7%,
CCc1ccc(C(=O)COC(=O)c2nn(C)c(=O)c3ccccc23)cc1,,"inconclusive: 50.1 µM [activator, single point]"
COc1ccc(-c2nnc(SCC(=O)NCCc3ccc(OC)c(OC)c3)nc2-c2ccc(OC)cc2)cc1,,"inconclusive: 50.1 µM [activator, single point]"
CCc1nc2sc3c(c2c(=S)[nH]1)CC(C)(C)OC3,inactive: -0.815%,
COc1ccc([C@@H]2CC=C(C(=O)O)[C@H](c3ccc(F)cc3)N2S(=O)(=O)c2ccc(Cl)cc2)cc1,,"inconclusive: 31.6 µM [activator, single point]"

Compound,growth rescue (activation),Potency
COc1ccc(C(C(=O)NC(C)(C)C)N(Cc2ccc(C)cc2)C(=O)CCC(=O)Nc2cc(C)on2)cc1 (stereo unspecified),,"inconclusive: 15.8 µM [activator, partial curve, poor fit]"
Cc1ccc(C)c(N2CCN(C(=O)C3CCCN(S(=O)(=O)c4c(C)noc4C)C3)CC2)c1 (stereo unspecified),,"inconclusive: 20 µM [activator, partial curve]"
Cn1c(C(=O)N(Cc2ccccc2)Cc2ccccn2)cc2sccc21,,"inconclusive: 20 µM [activator, partial curve, poor fit]"
Cc1c(N=C2NN=C(c3c[nH]c4ccccc34)CS2)c(=O)n(-c2ccccc2)n1C,,"inconclusive: 50.1 µM [activator, single point]"
COC(=O)C1=C(O)/C(=C/c2ccc(OCC(=O)Nc3ccccc3)cc2)N=C1C,,"inconclusive: 56.2 µM [activator, single point]"
COc1ccc(CCNC(=S)NC(=O)c2c(-c3ccccc3Cl)noc2C)cc1OC,,"inconclusive: 50.1 µM [activator, single point]"
CCc1ccc(CNC(=O)c2nn(-c3ccc(C)cc3)c(=O)c3c2c2ccccc2n3C)cc1,inactive: -9.83%,
COC(=O)[C@@]12C[C@@H](CC(=O)NCCC(C)C)C(=O)N(Cc3cccc4ccccc34)C1=CCC(C)(C)C2,,active: 14.1 µM
N#Cc1cnc(Nc2nc3ccccc3o2)nc1-c1ccccc1,,"inconclusive: 7.08 µM [activator, full curve, poor fit]"
O=C(NCCC1=CCCCC1)c1ccc2c(c1)N(Cc1cccc(Cl)c1)C(=O)c1ccccc1S2=O (stereo unspecified),inactive: 12.4%,
Cc1c(NC(=O)c2ccc(-c3cccc([N+](=O)[O-])c3)o2)cccc1-c1nc2cc(Cl)ccc2o1,inactive: -14.5%,
CC(=O)c1c(C)[nH]c(C(=O)Nc2ccc(C)c(S(=O)(=O)Nc3ccc(C)cc3C)c2)c1C,,"inconclusive: 28.2 µM [activator, partial curve]"
CCCCCC(=O)Nc1cccc(C2=NOC3(C2)C[C@@H](C(N)=O)N(C(=O)CC(c2ccccc2)c2ccccc2)C3)c1 (stereo partly specified),,"inconclusive: 31.6 µM [activator, single point]"
O=C(CCSc1ccccc1)NC1CCCC1,inconclusive: 63.6% [activator],
COC(=O)[C@@]1(Cc2ccc(F)cc2)[C@H]2c3cc(C(=O)N4CCCC4)n(Cc4cc(C)n(C)n4)c3C[C@H]2CN1C(=O)c1ccccc1,,"inconclusive: 11.2 µM [activator, partial curve, poor fit]"
COC(=O)[C@]12CCCCC=C1N(Cc1ccc3c(c1)OCO3)C(=O)[C@H](CC(=O)NCc1cccc3ccccc13)C2,,"inconclusive: 14.1 µM [activator, partial curve, poor fit]"
COc1ccc(-c2nc(C)c(CCNS(=O)(=O)c3cc(Cl)ccc3Cl)s2)cc1,,"inconclusive: 14.1 µM [activator, partial curve]"
COc1ccc(-c2n[nH]c3c2C(c2ccc(OC)c(OC)c2)N(c2ccccc2)C3=O)cc1 (stereo unspecified),,"inconclusive: 50.1 µM [activator, single point]"
CC(C)NC(=O)Cn1nnc(-c2ccccc2)c1COc1ccc2ccccc2c1,,"inconclusive: 35.5 µM [activator, single point]"
